# Measurements from article PMC12136788.
# The other results are listed elsewhere or left out.
# T1: UNK ZnF1-3 (human, UniProt Q9C0B0 31-174)
# T1 sequence: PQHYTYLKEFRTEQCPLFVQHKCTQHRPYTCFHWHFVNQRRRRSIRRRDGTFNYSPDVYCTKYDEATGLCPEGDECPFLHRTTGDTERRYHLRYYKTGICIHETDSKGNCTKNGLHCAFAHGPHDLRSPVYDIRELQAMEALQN
# B1: 44656479_44656599_2094_CDS_ENSMUSG00000002028_ENSMUST00000002095|mouse|control|control (ssRNA)
# RNA: GGGAGUUCUACAGUCCGACGAUCAUUACUAGGCAAGGUCACAGACUCAAAUAUUCUAGAGUGUGCCUCACUUGGAGUAAAUCUGGGAGCUCUCAGAAUGGGGCUCCUUUUAUGAAUAUCAAACCUUGUUCCAGAAUGGAGUGGCAACAGAGGAUUGAGCAUCA
# B2: chr9:57762402:57762403:+_ENSMUSG00000055720_ENSMUST00000163329|mus_hu|FALSE|FALSE (ssRNA)
# RNA: GGGAGUUCUACAGUCCGACGAUCCCAGGACUUUCGCAGAACAUGGACAGUGGACCCAGGUUGAAUGCCAUAGAAGUCAAGUGUCUGGUCAUCUUUUAGCUUCCGACCACAGUAGAUCAGAUCAAUCAGCUCAGGGUCUGGAACCAACAGAGGAUUGAGCAUCA
# B3: chr1:60041781:60041782:+_ENSMUSG00000041040_ENSMUST00000036540|mus_hu|mus_mus_mus_hu_False|18_58 (ssRNA)
# RNA: GGGAGUUCUACAGUCCGACGAUCAAGUUUACAAUAGUAAAGUAAAUGCAGUAGUGGCAAAUUUUCUUUUAUUUUCCUUCCUAAAAGAAAAUCUUUAUAACCCAGUCCUAGUCUUGGCAGAGAAAGCAGCUAUAAAUUCUGACUCAACAGAGGAUUGAGCAUCA
# B4: 135711621_135711741_1686_CDS_ENSG00000082258_ENST00000295238|human|control|control (ssRNA)
# RNA: GGGAGUUCUACAGUCCGACGAUCGCUGCUGGUGUGGUGGCGGCUUGAAGGAUGCUCCUUGUGCUUCUCCUUAUGGUCUCUGCUAAUAUGUGGGCUUGAAUGUUUGCUCUUCCCACUGCCUUCAUCAGAAGAGCUGUGUCUUUCCAACAGAGGAUUGAGCAUCA
# B5: chr7:54823571:54823572:-_ENSG00000132432_ENST00000352861|hu_mus|hu_hu_hu_mus_False|28_108 (ssRNA)
# RNA: GGGAGUUCUACAGUCCGACGAUCUCCCAUUAUAGCAAAUCCUAUAGCUGUAGCCAUGGCAAUCUUCUGGAAUUCUUUUCUGUCGGGUUUGGUGCAUCUUUUAACCAGCCGAAUGGAGUCCUUUACAAACUGCCGGCUGGGCUCCAACAGAGGAUUGAGCAUCA
# B6: chr6:44221449:44221450:+_ENSG00000096384_ENST00000371646|hu_hu|motif|central (ssRNA)
# RNA: GGGAGUUCUACAGUCCGACGAUCAAUGGGGCUUGACACCCUUAGUUUACUGCCUUCAACACAAGGACAGGAGAGGGAAAAAAACACGGGACACCAGCAGGGGGAGCCAGGUGGGACAGGGGCACUCGAGGCUGCAGUGGGAGCCAACAGAGGAUUGAGCAUCA
# Target: T1, UNK ZnF1-3
# Assay: nsRBNS (natural sequence RNA bind-n-seq); RBNS binding buffer (assumed for nsRBNS): 25 mM Tris pH 7.5, 150 mM KCl, 3 mM MgCl2, 0.01% Triton X-100, 500 ug/ml BSA, 20 U/ml SUPERase-In, 4 C; UNK is unkempt and MSI1 is Musashi-1; names of the RNAs are library labels; protein concentration not given here; high values mean tight binding
row,Binder,binding signal [enrichment R]
1,B1,0.731
2,B2,1.24
3,B3,1.06
4,B4,0.666
5,B5,0.841
6,B6,1.97
